# Some of the results follow. The energies were worked out here from pooled read counts, against the library average; single values are noisy.
# Target: T1, Pho4 (S. cerevisiae) (UniProt P07270)
# T1 sequence: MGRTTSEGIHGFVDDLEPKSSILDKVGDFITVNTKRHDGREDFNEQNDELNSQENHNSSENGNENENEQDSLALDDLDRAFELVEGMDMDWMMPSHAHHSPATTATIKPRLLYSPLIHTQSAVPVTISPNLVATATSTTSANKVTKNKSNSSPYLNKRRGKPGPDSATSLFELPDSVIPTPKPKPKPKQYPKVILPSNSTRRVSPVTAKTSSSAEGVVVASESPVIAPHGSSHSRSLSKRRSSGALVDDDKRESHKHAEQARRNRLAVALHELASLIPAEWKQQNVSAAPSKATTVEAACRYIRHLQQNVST
# Assay: relative binding free energy (BET-seq); higher = weaker binding
# Conditions: reference: library average
row,Sequence,relative binding free energy
1,GTGGGCACGTGTGAGA,0.03 kcal/mol
2,GTGGACACGTGTGATA,0.04 kcal/mol
3,GGAGGCACGTGTGTTA,-0.05 kcal/mol
4,ATTGGCACGTGCGATT,-0.05 kcal/mol
5,TGTATCACGTGCTGTA,0.02 kcal/mol
6,TGTAGCACGTGTTTAG,0.07 kcal/mol
7,AGATTCACGTGTGGCA,0.31 kcal/mol
8,GGCCGCACGTGGGCGG,-0.12 kcal/mol
9,TTAGTCACGTGATTGA,0.26 kcal/mol
10,GGTTCCACGTGTGATT,0.17 kcal/mol
11,AGTATCACGTGGGGCT,-0.05 kcal/mol
12,GGAGTCACGTGGTAGA,0.15 kcal/mol
13,GTATTCACGTGGGCTT,0.12 kcal/mol
14,GTAGGCACGTGCTCGG,-0.11 kcal/mol
15,GTAGTCACGTGCTTAG,0.03 kcal/mol
16,TTTTGCACGTGTGCTT,-0.04 kcal/mol
17,AAGTGCACGTGTTTGC,0.02 kcal/mol
18,GTTTTCACGTGTATCA,0.32 kcal/mol
19,ATTGTCACGTGACTGT,0.17 kcal/mol
20,ACGGGCACGTGTCTGT,-0.02 kcal/mol
21,CATAGCACGTGTTGTT,-0.18 kcal/mol
22,ATAGTCACGTGGTAAG,0.1 kcal/mol
23,AATTGCACGTGGGCGG,-0.05 kcal/mol
24,TGTGACACGTGGTGGG,0.03 kcal/mol
25,CTTAGCACGTGTTGAG,-0.17 kcal/mol

row,Sequence,relative binding free energy
1,CATGGCACGTGTATGG,-0.07 kcal/mol
2,GGGTTCACGTGTGCTG,0.27 kcal/mol
3,ATCATCACGTGGGTTA,-0.05 kcal/mol
4,AAGAACACGTGTGGTT,-0.03 kcal/mol
5,GTAGGCACGTGAGGAT,0.19 kcal/mol
6,AGGAGCACGTGGGAAA,-0.13 kcal/mol
7,GTCGGCACGTGAGTGA,0.21 kcal/mol
8,TTAAGCACGTGGTTAG,-0.14 kcal/mol
9,TTGGTCACGTGAGTAG,0.26 kcal/mol
10,ATTTCCACGTGTTAGG,0.14 kcal/mol
11,TTTTGCACGTGTGAAC,0.17 kcal/mol
12,TTGTTCACGTGAGATG,0.24 kcal/mol
13,GGCTTCACGTGGGCTG,0.25 kcal/mol
14,GGGGTCACGTGTGTGC,0.21 kcal/mol
15,TGTGACACGTGAGATT,0.28 kcal/mol
16,TCATGCACGTGTTTAG,-0.07 kcal/mol
17,TTAGTCACGTGTGTAC,0.16 kcal/mol
18,GATTTCACGTGTGAGG,0.32 kcal/mol
19,GTTGGCACGTGCGAAT,-0.09 kcal/mol
20,CGGGGCACGTGAGGTG,0.18 kcal/mol
21,CAGTGCACGTGGAGAG,-0.1 kcal/mol
22,TTATGCACGTGAATAG,0.14 kcal/mol
23,GTGAGCACGTGGTAGA,-0.09 kcal/mol
24,TAGTGCACGTGATTAA,0.18 kcal/mol
25,GATGTCACGTGTGTGA,0.12 kcal/mol

row,Sequence,relative binding free energy
1,TTTATCACGTGGTCAT,0.06 kcal/mol
2,CTGTGCACGTGGTTTA,-0.07 kcal/mol
3,AGTGACACGTGGGCGA,-0.11 kcal/mol
4,TCTGTCACGTGTTTTT,0.04 kcal/mol
5,GAGGCCACGTGTTGAG,0.07 kcal/mol
6,GTGCGCACGTGGCGGC,-0.17 kcal/mol
7,TTCGGCACGTGAATTT,0.19 kcal/mol
8,TATGACACGTGATATT,0.2 kcal/mol
9,AATGACACGTGGGTAT,-0.04 kcal/mol
10,TAGGACACGTGGCGCG,-0.03 kcal/mol
11,GAGTTCACGTGAGGGA,0.37 kcal/mol
12,TATAGCACGTGGTGGC,-0.13 kcal/mol
13,GGTATCACGTGGGATG,0.26 kcal/mol
14,GGTGTCACGTGTCCTG,0.09 kcal/mol
15,AGTATCACGTGTGTAT,0.26 kcal/mol
16,AATGTCACGTGGGGTG,-0.09 kcal/mol
17,GGTTGCACGTGAAAAG,0.39 kcal/mol
18,TGTGCCACGTGTTTTC,0.04 kcal/mol
19,TTACACACGTGGTTTG,0 kcal/mol
20,TGTTGCACGTGTCAAG,0.02 kcal/mol
21,TGGAGCACGTGTGGAT,-0.05 kcal/mol
22,TATGTCACGTGTTTAC,0.21 kcal/mol
23,GATTACACGTGTGAGT,0.2 kcal/mol

# Reference: the BET-seq Pho4 binding data (Le et al. 2018)
